The results in this text go back to article PMC9805134.

Protein sequences, listed by entry. Tags and fused reporters are not part of them. Lines headed by an entry give the natural chain unless they say otherwise; changes in a name come on top. Chains listed by the source or under a name are the forms on record and can include a tag or linker.
UniProt P15056: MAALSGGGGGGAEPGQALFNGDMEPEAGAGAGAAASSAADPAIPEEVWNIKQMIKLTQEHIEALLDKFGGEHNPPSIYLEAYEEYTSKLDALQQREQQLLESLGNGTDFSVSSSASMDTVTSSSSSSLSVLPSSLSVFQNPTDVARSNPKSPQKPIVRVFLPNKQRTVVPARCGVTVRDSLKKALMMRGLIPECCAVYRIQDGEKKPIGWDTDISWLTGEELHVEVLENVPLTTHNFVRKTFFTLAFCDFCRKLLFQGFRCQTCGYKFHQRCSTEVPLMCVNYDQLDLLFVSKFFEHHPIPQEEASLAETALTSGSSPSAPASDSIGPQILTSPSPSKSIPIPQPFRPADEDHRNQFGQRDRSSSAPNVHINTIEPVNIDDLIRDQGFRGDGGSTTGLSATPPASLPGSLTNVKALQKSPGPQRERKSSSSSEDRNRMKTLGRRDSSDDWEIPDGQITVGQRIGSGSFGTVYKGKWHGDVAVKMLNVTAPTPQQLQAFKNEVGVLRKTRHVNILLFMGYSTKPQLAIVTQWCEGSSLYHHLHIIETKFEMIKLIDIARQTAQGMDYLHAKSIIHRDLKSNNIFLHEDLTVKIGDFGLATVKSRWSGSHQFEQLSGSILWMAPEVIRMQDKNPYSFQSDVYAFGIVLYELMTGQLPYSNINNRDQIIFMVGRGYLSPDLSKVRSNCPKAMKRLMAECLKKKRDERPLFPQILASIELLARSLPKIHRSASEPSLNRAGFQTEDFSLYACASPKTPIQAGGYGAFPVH
BRAF-ΔSBC mutant (P15056, form named): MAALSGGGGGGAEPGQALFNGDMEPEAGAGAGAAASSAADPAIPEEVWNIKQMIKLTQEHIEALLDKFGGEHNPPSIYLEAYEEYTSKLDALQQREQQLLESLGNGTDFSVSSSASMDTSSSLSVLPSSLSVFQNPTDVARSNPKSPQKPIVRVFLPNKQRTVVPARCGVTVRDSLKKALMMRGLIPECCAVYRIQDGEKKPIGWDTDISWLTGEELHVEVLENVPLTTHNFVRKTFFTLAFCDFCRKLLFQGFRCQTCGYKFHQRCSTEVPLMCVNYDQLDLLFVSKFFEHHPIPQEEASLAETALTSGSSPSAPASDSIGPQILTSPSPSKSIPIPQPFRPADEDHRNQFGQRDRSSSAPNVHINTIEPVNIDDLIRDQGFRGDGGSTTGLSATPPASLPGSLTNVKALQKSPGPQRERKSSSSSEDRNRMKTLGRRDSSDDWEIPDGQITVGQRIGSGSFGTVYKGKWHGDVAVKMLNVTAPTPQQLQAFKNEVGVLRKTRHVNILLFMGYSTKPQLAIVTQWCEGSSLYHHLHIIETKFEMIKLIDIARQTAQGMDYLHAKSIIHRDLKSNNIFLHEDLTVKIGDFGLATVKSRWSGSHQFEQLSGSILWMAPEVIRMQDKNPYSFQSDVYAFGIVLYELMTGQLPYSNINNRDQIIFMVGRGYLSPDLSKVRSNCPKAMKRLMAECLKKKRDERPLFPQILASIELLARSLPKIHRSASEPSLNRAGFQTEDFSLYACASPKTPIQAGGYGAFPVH
UniProt O43791: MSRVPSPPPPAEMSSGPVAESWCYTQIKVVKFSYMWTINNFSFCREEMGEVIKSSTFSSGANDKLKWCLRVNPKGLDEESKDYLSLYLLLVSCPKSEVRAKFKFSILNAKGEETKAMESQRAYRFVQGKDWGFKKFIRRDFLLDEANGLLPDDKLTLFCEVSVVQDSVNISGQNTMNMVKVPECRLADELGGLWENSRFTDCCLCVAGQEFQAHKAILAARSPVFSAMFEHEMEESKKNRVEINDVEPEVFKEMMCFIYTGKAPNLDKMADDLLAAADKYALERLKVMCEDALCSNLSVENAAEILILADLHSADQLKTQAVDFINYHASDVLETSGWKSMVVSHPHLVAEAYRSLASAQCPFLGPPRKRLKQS

Assay [1] concerns the target BRAF, endogenous in Ishikawa cells (human (endogenous in Ishikawa)) (UniProt P15056). As to the kind of experiment: co-IP; endogenous proteins; cell extracts of Ishikawa cells; co-IP with IgG, anti-SPOP or anti-BRAF antibody, Western blot. Background: A western blot detects proteins with antibodies after separation by electrophoresis.
Assay [2] addresses Speckle-type BTB/POZ protein (SPOP), wild type, ectopically expressed (UniProt O43791). As to the kind of experiment: co-IP; 293T cells transfected with the indicated plasmids; co-IP with anti-FLAG antibody from whole-cell lysates, Western blot.
Assay [3] addresses SPOP, endogenous in Ishikawa cells (human (endogenous in Ishikawa)) (UniProt O43791). As to the kind of experiment: co-IP; endogenous proteins; cell extracts of Ishikawa cells; co-IP with IgG, anti-SPOP or anti-BRAF antibody, Western blot.
In assay [4] the target is BRAF, wild type, ectopically expressed (human) (UniProt P15056). Briefly: co-IP; 293T cells transfected with the indicated plasmids; co-IP with anti-FLAG antibody from whole-cell lysates, Western blot.
For assay [5], the target named is BRAF-ΔSBC mutant (human) (UniProt P15056). The description is as above.

These are yes or no findings as the source states them, for the method shown. Binding seen in cells or lysates may run through a third protein. Some entries that bind do so weakly or less than the wild type.

Take “SPOP, endogenous in Ishikawa cells (from UniProt O43791 1-374)”: the binding result in assay [1] is given as “binds”.
“BRAF, wild type, ectopically expressed (from UniProt P15056 1-766)”: in assay [2], the binding result was “binds”.
Turning to “BRAF, endogenous in Ishikawa cells (from UniProt P15056 1-766)”, the binding result in assay [3] is on record as “binds”.
In the case of “Speckle-type BTB/POZ protein (SPOP), wild type, ectopically expressed (from UniProt O43791 1-374)”, the binding entry is recorded as “binds” in assay [4] and “no binding” in assay [5].
With “SPOP-Y87C mutant (from UniProt O43791 1-374)”, the binding entry in assay [4] was “binds”.
